About 5,300 (4.4%) of roughly 120,000 compounds were called active. This list was built around the results that the source calls inconclusive (neither active nor inactive); the mix of calls is not that of the screen. Calls come from the whole dose curve; as a rule, active = well fitted inhibition curve with a large enough effect; inconclusive = small, poorly fitted or top-dose-only effect; inactive = no such curve, though single readings can be large or run the other way. Where the call is inconclusive, the potency comes from a doubtful curve fit.
experiment: qHTS Primary assay for Inhibitors of Plasmodium falciparum Dd2 growth in vitro; note: nearly all actives have a fitted effect of over 65% in size;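 for activity, negative = inhibition: plate controls were DMSO vehicle for no effect and reference drug for full effect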; conditions: P. falciparum Dd2 growth, SYBR Green, 72 h; activity, negative = inhibition: at 28.9 µM (top of the series) unless noted; series mostly up to 28.9 µM
Outline: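 Infected erythrocytes (Dd2, 0.3% parasitemia, 2.5% hematocrit final) are added to compound in RPMI-1640/Albumax II medium, grown 72 h at 37C in low oxygen, then lysed with saponin/Triton-X containing SYBR Green and read by fluorescence.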
Potency is the fitted concentration of half-maximal effect; tags give direction and shape of the fitted curve.

Row | SMILES | Potency | activity, negative = inhibition | outcome
1 | COc1ccc(C(=O)N2CCCC(c3noc(COc4ccccc4)n3)C2)cn1 (stereo not drawn) | inconclusive: 12.6 µM [inhibitor, partial curve, poor fit] |  | 
2 | O=C(c1c[nH]c(=O)c2ccccc12)N1C[C@H](CO)C[C@H](CN2CCCC2)C1 |  | inactive: 16.5% | 
3 | N#Cc1cccc(CN2CCCC(c3nc(-c4cccnc4)no3)CCNC(=O)CC2)c1 (stereo not drawn) | active: 5.01 µM |  | 
4 | CCN(CC)CCCNC(=O)CSc1nc2nc(C)c(Cc3c(F)cccc3Cl)c(C)n2n1 |  | inactive: -29.5% | 
5 | O=C(Nc1cccc(F)c1)Nc1cccc(-c2ccc(N3CCCCC3)nn2)c1 | inconclusive: 20 µM [inhibitor, single point] |  | 
6 | COCC(=O)Nc1ccc2c(c1)CN(CCc1ccccc1)C(=O)C(C)O2 (stereo not drawn) | inconclusive: 3.16 µM [inhibitor, single point] |  | 
7 | CCCn1c(=O)c2sccc2n2c(CCCC(=O)Nc3ccc(Oc4ccccc4)cc3)nnc12 | inconclusive: 11.2 µM [inhibitor, partial curve, poor fit] |  | 
8 | CC(=O)NC1CC(c2cc(NCCCOC3CCN(C)CC3)ncn2)C1 (stereo not drawn) | inconclusive: 0.0316 µM [inhibitor, full curve, poor fit] |  | 
9 | O=C(Cc1ccccc1O)N1CCCC(CCc2c(F)cccc2F)C1 (stereo not drawn) | inconclusive: 17.8 µM [inhibitor, single point] |  | 
10 | CCn1cc(CN(CCOC)Cc2cccs2)ccc1=O |  | inactive: -9.04% | 
11 | Cc1nncn1C1CCN(S(=O)(=O)c2ccc(F)c(Cl)c2)CC1 | inconclusive: 3.16 µM [inhibitor, partial curve, poor fit] |  | 
12 | O=C(COc1ccccc1)NC[C@H]1Cn2c(-c3ccc(Cl)cc3)cnc2CO1 | inconclusive: 3.55 µM [inhibitor, full curve, poor fit] |  | 
13 | Cc1ccc(-c2ncc(NC(=O)c3ccccc3C(F)(F)F)cn2)cc1 |  |  | inactive
14 | CCC1c2nccn2CCCN1C(=O)Cn1c(=O)oc2ccccc21 (stereo not drawn) | active: 12.6 µM |  | 
15 | CCc1ccccc1NC(=O)c1sc2nc3n(c(=O)c2c1C)CCC3 | inconclusive: 11.2 µM [inhibitor, single point] |  | 
16 | COc1ccccc1CN1CCc2nc(C(=O)Nc3ccccc3)oc2CC1 | active: 11.2 µM |  | 
17 | Cn1cc(CN2C[C@H](C(=O)Nc3cccc(F)c3)C[C@@H]2c2cccc(C(F)(F)F)c2)cn1 | inconclusive: 10 µM [inhibitor, single point] |  | 
18 | Cc1cnc(CCNC(=O)c2cccc(C#N)c2)n1C1CC1 | inconclusive: 7.08 µM [inhibitor, partial curve] |  | 
19 | CC(=O)c1cccc(NC(=O)CN2C(=O)c3cccnc3Sc3ccccc32)c1 | inconclusive: 10 µM [inhibitor, single point] |  | 
20 | COc1ccc(CN(C)Cc2ncccc2C(=O)O)cc1 |  | inactive: 14.7% | 
21 | CCc1ccc(NC(=O)Cn2c(=O)n(-c3ccccc3)c(=O)c3ccc(C(=O)NCc4ccc5c(c4)OCO5)cc32)cc1 | inconclusive: 6.31 µM [inhibitor, partial curve, poor fit] |  | 
22 | Cc1ccc(-c2cc3c(=O)n(CCNC(=O)c4ccc5c(c4)OCO5)ccn3n2)c(C)c1 | inconclusive: 17.8 µM [inhibitor, single point] |  | 
23 | COc1ccc(Cl)cc1NC(=O)c1ncn(-c2ccccc2)n1 | inconclusive: 11.2 µM [inhibitor, single point] |  | 

Row | SMILES | Potency | activity, negative = inhibition | outcome
24 | COc1ccc(OC)c(NC(=O)Cc2c(C)n(C(=O)c3ccc(Cl)cc3)c3ccc(OC)cc23)c1 | inconclusive: 17.8 µM [inhibitor, single point] |  | 
25 | O=C1CCCN1CCCN1C(=O)[C@@H]2C[C@@H](O)CN2C2(CN(Cc3cnc4ccccc4c3)C2)C1=O |  | inactive: -10% | 
26 | CCOC(=O)c1cnc2ccc(C(=O)OC)cc2c1Nc1ccc(N2CCOCC2)cc1 | inconclusive: 10 µM [inhibitor, single point] |  | 
27 | O=C(c1ccccc1F)N1CCCC(c2nn(-c3ccc(F)cc3)c(=O)[nH]2)C1 (stereo not drawn) |  | inactive: -4.39% | 
28 | COC(=O)c1ccc(Cn2c(SCC(=O)NCc3ccccc3)nc3ccccc32)cc1 |  | inactive: 27% | 
29 | CNC(=O)c1cccc(-c2ccc(C(C)(C)C#N)cc2)n1 | inconclusive: 10 µM [inhibitor, single point] |  | 
30 | CN1CC2(CCN(C3CCN(Cc4ccccc4)CC3)CC2)CC1C(=O)N1CCOCC1 (stereo not drawn) | inconclusive: 10 µM [inhibitor, single point] |  | 
31 | CC(C)CCNC(=O)C1CCN(S(=O)(=O)c2cccc3nsnc23)CC1 | inconclusive: 0.251 µM [inhibitor, full curve, poor fit] |  | 
32 | CNC(=O)C1CCN(Cc2cc3ccccc3n2Cc2cccc(C)c2)CC1 | inconclusive: 1 µM [inhibitor, single point] |  | 
33 | O=C1CC2(CCN(C(=O)c3ccc4c(c3)OCO4)CC2)Oc2ccccc2N1 |  | inactive: -1.07% | 
34 | CCCCc1nc(Cl)c(CN2CCCC(COc3ccccc3C(=O)NC3CC3)C2)[nH]1 (stereo not drawn) | inconclusive: 0.447 µM [inhibitor, full curve, poor fit] |  | 
35 | O=C(Nc1ccc(=O)n2c1[C@@H]1C[C@@H](CN(C(=O)COc3ccccc3)C1)C2)c1cncnc1 | inconclusive: 8.91 µM [inhibitor, single point] |  | 
36 | CCCN(CC1CCOC1)C(=O)Cc1c(F)cccc1Cl (stereo not drawn) |  | inactive: -11% [at 5.79 µM] | 
37 | CN(C)c1cc2c(cc1NC(=O)c1ccc(F)cc1)n(C)c(=O)n2C | inconclusive: 12.6 µM [inhibitor, single point] |  | 
38 | Cc1ccc(-n2nc3c(N4CCC(C(=O)NCCc5ccccc5C)CC4)nnc(C)c3c2C)cc1 | active: 8.91 µM |  | 
39 | CN(CC1CCOCC1)C(=O)NCc1ccccc1 |  | inactive: 16.8% | 
40 | Cc1cccc(-c2noc([C@@H]3Cc4nc[nH]c4CN3Cc3cccc(C#N)c3)n2)c1 | inconclusive: 8.91 µM [inhibitor, partial curve, poor fit] |  | 
41 | COc1ccc(CN2CCC3(CC(Cc4ccccc4)=NO3)C2)cc1 (stereo not drawn) | inconclusive: 2.24 µM [inhibitor, full curve] |  | 
42 | C[C@@H](c1ccccc1)N(C)C(=O)c1cn(Cc2cccc(C(F)(F)F)c2)nn1 | inconclusive: 20 µM [inhibitor, single point] |  | 
43 | NC(=O)N1CCCC(C(=O)NCCCn2nccc2C2CC2)C1 (stereo not drawn) |  | inactive: -15.1% | 
44 | CC1Oc2ccc(NC(=O)c3ccc(F)cc3F)cc2CN(C2CCCc3ccccc32)C1=O (stereo not drawn) | inconclusive: 8.91 µM [inhibitor, single point] |  | 
45 | CCOc1ccc(C(=O)NCC(c2ccc3c(c2)OCO3)N2CCN(c3ccc(F)cc3)CC2)cc1 (stereo not drawn) | active: 11.2 µM |  | 
46 | Cc1cn2nc(C(=O)Nc3cc(F)cc(F)c3)cc2c(N(C)Cc2ccccc2)n1 | inconclusive: 2.51 µM [inhibitor, single point] |  | 

Row | SMILES | Potency | activity, negative = inhibition | outcome
47 | CCc1ccccc1NC(=O)N1CCC2(CC1)Oc1ccccc1C(=O)N2Cc1ccccc1F | inconclusive: 6.31 µM [inhibitor, partial curve] |  | 
48 | Cc1ccc(-c2ccc3nnc(CNC(=O)Cc4ccc(F)cc4)n3n2)cc1C |  |  | inactive
49 | COc1ccc(OC)c(Nc2ncc3c(n2)CCN(Cc2cc(OC)c(OC)c(OC)c2)C3)c1 | inconclusive: 20 µM [inhibitor, partial curve, poor fit] |  | 
50 | O=C(N1CCCC1)N1CCN(C2CCNCC2)C(=O)C1 |  | inactive: -7.11% | 
51 | Cc1cnc(CN(C)Cc2cn(-c3ccccc3)nn2)[nH]1 | inconclusive: 17.8 µM [inhibitor, single point] |  | 
52 | COc1ccccc1-c1n[nH]c2c1CC(=O)N(Cc1ccccc1)C2 | inconclusive: 2.82 µM [inhibitor, single point] |  | 
53 | CC(=O)NC1(C)CCN(Cc2ccc(-c3cccc(F)c3)cc2)C1 (stereo not drawn) | inconclusive: 0.316 µM [inhibitor, partial curve, poor fit] |  | 
54 | O=C(c1ccc(F)cc1Cl)N1C[C@@H](CO)[C@H](c2ccncc2)C1 |  | inactive: -6.24% | 
55 | O=C(NCCc1ccc(Cl)cc1)c1nc(-c2cccnc2)c2ccccn12 | inconclusive: 12.6 µM [inhibitor, partial curve, poor fit] |  | 
56 | CC(=O)N1CCC(N2CCN3C(=O)N(Cc4ccccn4)C[C@H]3C2)CC1 |  | inactive: 3.21% [at 44.1 µM] | 
57 | CN(CC1CCOCC1)S(=O)(=O)c1ccc(F)c(Cl)c1 | inconclusive: 0.316 µM [inhibitor, full curve, poor fit] |  | 
58 | Cc1c(-c2ccccc2)n(-c2ccccc2O)c2nc3c(c(=O)n(C)c(=O)n3C)n12 | active: 3.16 µM |  | 
59 | COc1cccc(-c2noc(NCc3cccc(Cl)c3)n2)c1OC | inconclusive: 11.2 µM [inhibitor, partial curve, poor fit] |  | 
60 | COC[C@@H]1CN(c2cnccn2)C[C@H]1C(=O)NCc1ccccc1OC |  | inactive: -43.6% | 
61 | C=CCN1CCN(C(=O)CCC[C@@H]2[C@H]3CCCN4CCC[C@@H](CN2C(=O)c2ccccc2)[C@@H]34)CC1 | active: 10 µM |  | 
62 | Cn1c(CO)nnc1C1CCN(c2ncncc2C(=O)O)CC1 |  | inactive: -11.6% | 
63 | COc1ccc(NC(=O)NCC2CCN(Cc3ccccc3F)CC2)c(OC)c1 |  | inactive: 10.7% | 
64 | Cc1cnc(C2CCC2)n1CC1CCN(C(=O)C2(c3ccccc3)CC2)CC1 | inconclusive: 14.1 µM [inhibitor, partial curve, poor fit] |  | 
65 | COCCN1C(=O)C(CC(=O)NC2CCS(=O)(=O)C2)=C2CCCCC21 (stereo not drawn) |  | inactive: 11.7% | 
66 | COc1ccc(C(=O)N2CCN(c3nnc4c(Cl)cccn34)CC2)cc1 | inconclusive: 1.12 µM [inhibitor, partial curve, poor fit] |  | 
67 | CCCN1CCc2[nH]cnc2C12CCN(C(=O)c1cnn3ccccc13)CC2 |  | inactive: 13.6% | 
68 | CN1CCN(c2cc(=O)c3ccnc(-c4cccc(F)c4)c3o2)CC1 |  |  | inactive [at 44.1 µM]

Reference: PubChem BioAssay AID1347417 (National Center for Advancing Translational Sciences (NCATS), 2020)
